# Assay results as given in PubChem BioAssay AID938 (National Center for Advancing Translational Sciences (NCATS), 2007).
# Screen size: about 73,000 compounds; about 1,800 (2.5%) were called active. Inconclusive results, whose numbers are uncertain, are shown with a selection of clear calls. Calls follow the shape of the dose curve; as a rule, active = well fitted activation curve with a large enough effect; inconclusive = small, poorly fitted or top-dose-only effect; inactive = no such curve, though single readings can be large or run the other way. No potency is given beside an inconclusive call; the fits are too rough.
# Assay: qHTS Assay for Agonists of the Thyroid Stimulating Hormone Receptor: Activators of Intracellular cAMP Concentrations in Parental HEK 293; also: nearly all actives have a fitted effect of over 55% in size; as to activation: % of control where 0% means no effect
# Details: parental HEK293 CNG cAMP sensor, membrane potential fluorescence; activation: at 57.1 µM (top of the series) unless noted
# Method in brief: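 Counterscreen for endogenous-receptor signalling: CNG-channel HEK 293 cells report cAMP rise by membrane depolarization. After 60 min dye equilibration with 100 uM RO 20-1724, compounds incubated 30 min before bottom-read fluorescence at 590 nm.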
# Potency is read from the fitted curve at half-maximal effect; tags tell the direction and shape of the fitted curve.
SMILES,Potency,activation
CCOC(=O)C1=C(C)NC(C)=C(C(=O)OCC)C1c1ccc(O)cc1,"inconclusive [activator, single point]",–
CN(C)S(=O)(=O)c1cccc(C(=O)NCCc2ccccc2)c1,–,inactive: 0.491%
Cc1ccc(C(=O)Nc2ccc3c(c2)ncn3C)cc1,–,inactive: 5.04%
CN(c1ccc(C(=O)N2CCCCC2)cc1)S(=O)(=O)c1ccccc1,"inconclusive [activator, single point]",–
Cc1ccc(C)n1-n1c(C)nc2scc(-c3cccs3)c2c1=O,"inconclusive [activator, partial curve]",–
Cc1ccccc1N(CC(=O)NC1CCCC1)C(=O)CS(=O)CC(=O)Nc1ccc2c(c1)OCO2 (stereo unspecified),–,inactive: 0.628%
Cc1ccc(-c2nnn(CC(=O)N(Cc3ccccc3)C(C(=O)NC3CCCC3)c3ccncc3)n2)o1 (stereo unspecified),"inconclusive [activator, single point]",–
CCOC(=O)N1CCN(c2c(-c3ccccc3)c3cc(Cl)ccc3[nH]c2=O)CC1,"inconclusive [activator, single point]",–
CN(C)c1ncc2nc(CCc3ccccc3)c(=O)n(Cc3ccc(F)cc3)c2n1,"inconclusive [activator, single point]",–
CCOC(=O)c1c(C)n(C(=O)c2ccco2)c(=O)n1C(=O)c1ccco1,"inconclusive [activator, single point]",–
Cc1ccccc1C(=O)c1cccn1CC(=O)NCc1ccco1,"inconclusive [activator, single point]",–
Cc1cnc(CNc2ncncc2-c2ccccc2CN(C)C)cn1,–,inactive: 2.4%
C=CCn1c2ccccc2c2nnc(SCc3ccc4nonc4c3)nc21,"inconclusive [activator, full curve, poor fit]",–
Cc1ccc(S(=O)(=O)Cc2ccc(C(=O)N3CCN(Cc4ccccc4)CC3)o2)cc1,"inconclusive [activator, single point]",–
COc1ccc(CNc2ncnc3ccc(-c4ccc5c(c4)OCO5)cc23)c(OC)c1,"inconclusive [activator, partial curve, poor fit]",–
CC(C)N(Cc1cc2ccccc2[nH]c1=O)C(=O)C(C)(C)C,"inconclusive [activator, single point]",–
CN(C)Cc1ccccc1-c1ccc2ncnc(N(C)Cc3ccco3)c2c1,"inconclusive [activator, partial curve]",–
O=C(Nc1scc(-c2ccccc2)c1C(=O)O)c1ccco1,"inconclusive [activator, single point]",–
N=C(N)SCc1cccc2c(=O)cc(-c3ccccc3)oc12,–,inactive: 0.833% [at 11.4 µM]
CCOC(=O)c1nnn(-c2nonc2N)c1COc1ccccc1,active: 12.6 µM,–
Cc1ccc2c(c1)c1ncnc(N3CCN(c4ccccc4)CC3)c1n2C,active: 25.1 µM,–
O=C(N[C@@]1(C(=O)O)C[C@@H]1c1ccccc1)c1ccccc1,–,inactive: 5.72% [at 11.4 µM]
COc1ccc(O)c(-c2c(-c3ccc(Cl)cc3)n[nH]c2C)c1,–,inactive: -21.9%

SMILES,Potency,activation
CCOC(=O)c1cnc(-n2nc(C)cc2C)nc1Nc1ccc2c(c1)OCO2,–,inactive: 10.7%
c1ccc(Cn2c(-c3ccco3)nc3nc4ccccc4nc32)cc1,–,inactive: 18.9%
CCOC(=O)CC(=O)CSc1nnc2c(n1)[nH]c1ccccc12,–,inconclusive: 30.3% [activator]
CN1C(=O)CC(N2CCC(c3nc4ccccc4[nH]3)CC2)C1=O (stereo unspecified),–,inactive: 13.1%
Fc1ccccc1N1CCN(C(c2ccncc2)c2nnnn2C2CCCC2)CC1 (stereo unspecified),"inconclusive [activator, partial curve]",–
COc1ccc(CNc2nc(-c3ccccc3OC)nc3ccccc23)c(OC)c1,–,inactive: -40.5%
COC(=O)c1ccccc1NC(=O)C1CC(c2ccc(F)cc2)=NO1 (stereo unspecified),"inconclusive [activator, single point]",–
CN(C)c1ncc2ncc(=O)n(CCc3ccccc3)c2n1,active: 12.6 µM,–
COc1cccc(Nc2ncc3nc(CCc4ccccc4)c(=O)n(CCC#N)c3n2)c1,"inconclusive [activator, partial curve]",–
COc1cccc(N2CCN(S(=O)(=O)c3ccc4nc(-c5ccccc5)[nH]c4c3)CC2)c1,"inconclusive [activator, single point]",–
CCOC(=O)COc1cc2c(C(=O)OCC)c(C)oc2cc1Br,"inconclusive [activator, partial curve]",–
COc1ccc(C)cc1S(=O)(=O)N1CCN(S(=O)(=O)c2cc(C)ccc2OC)C(C)C1 (stereo unspecified),"inconclusive [activator, single point]",–
Cc1noc(C)c1-c1nccc(N2CCN(C)CC2)n1,–,inconclusive: 31.1% [activator]
COCCn1c(=O)c(CCc2ccccc2)nc2cnc(OCc3ccccc3)nc21,–,inactive: 27.3%
O=S(=O)(c1ccccc1)N1CCC2(CCCN(c3ccccn3)C2)CC1,"inconclusive [activator, full curve]",–
CC(=O)Nc1cc(CN2CCCCC2)c(O)c2ncccc12,–,inactive: 20.9% [at 11.4 µM]
Cc1cc2c(c(=O)o1)C1(C(=O)N(CC(=O)O)c3ccccc31)C(C#N)=C(N)O2 (stereo unspecified),"inconclusive [activator, single point]",–
COc1ccc(Cl)cc1NC(=O)CSc1ncnc2c1oc1ccccc12,–,inactive: 9.9%
CCNc1ncc2nc(-c3ccc(F)cc3)c(=O)n(CCc3ccccc3)c2n1,"inconclusive [activator, single point]",–
CCCc1[nH]nc2c1C(c1ccc(OC)c(Cn3nc(C)c(Br)c3C)c1)C(C#N)=C(N)O2 (stereo unspecified),"inconclusive [activator, partial curve]",–
CCC(=O)N1CCN(c2ccccc2NC(=O)COc2cc(C)ccc2C(C)C)CC1,active: 15.8 µM,–
Cc1cccc(Nc2nn3c(=O)c4ccccc4nc3s2)c1,–,inactive: 6.16%
Cc1ccc(-c2cc(-c3ccc4c(c3)OCO4)c(C#N)c(N)n2)o1,"inconclusive [activator, single point]",–
